Article PMC7604603
These are yes or no findings as the source states them, for the method shown. Binding seen in cells or lysates may run through a third protein. Some binding calls cover weakened binding; strength is not graded here. For some of these results: Sequences can lack the tags named with a protein.

Protein sequences, listed by entry. Tags and fused reporters are not part of them.
UniProt Q12824: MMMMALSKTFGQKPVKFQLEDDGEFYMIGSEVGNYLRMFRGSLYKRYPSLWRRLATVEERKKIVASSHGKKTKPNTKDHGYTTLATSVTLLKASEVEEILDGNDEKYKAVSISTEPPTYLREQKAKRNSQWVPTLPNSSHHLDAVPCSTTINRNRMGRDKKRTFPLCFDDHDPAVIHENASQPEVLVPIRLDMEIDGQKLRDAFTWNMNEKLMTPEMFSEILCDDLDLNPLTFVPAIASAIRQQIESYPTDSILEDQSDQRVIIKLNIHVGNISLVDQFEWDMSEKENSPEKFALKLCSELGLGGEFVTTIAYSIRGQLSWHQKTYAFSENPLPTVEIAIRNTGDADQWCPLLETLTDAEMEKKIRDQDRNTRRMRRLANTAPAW

How the values were obtained:
[1] = molecular target: SMARCB1, endogenous in HUVEC (human (endogenous in HUVEC)) (UniProt Q12824); assay: co-IP; endogenous proteins; anti-SMARCB1 IP, western blot; HUVEC or RAOEC after 4-hour OGD and 1-hour reoxygenation, with or without 500 μM H2O2; isotype IgG as negative control
[2] = molecular target: T1, NR4A3-AF1 (1-124 amino acids) fused with a flag tag in the N-terminal (UniProt Q92570); assay: co-IP; flag-tagged NR4A3-C, full-length or truncated NR4A3 coexpressed with HA-SMARCB1 in HEK-293T cells; antiflag IP, western blot; beads washed 5 times with IP lysis buffer containing 300 mM NaCl
T1 sequence: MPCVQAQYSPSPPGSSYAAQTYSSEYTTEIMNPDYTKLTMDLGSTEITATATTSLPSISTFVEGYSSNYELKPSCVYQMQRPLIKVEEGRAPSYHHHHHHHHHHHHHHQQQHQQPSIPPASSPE

[3] = molecular target: NR4A3-C (C-terminal 308 amino acids of NR4A3) fused with a flag tag in the N-terminal (UniProt Q92570); assay: as above
[4] = molecular target: NR4A3-FL (1-627 amino acids) fused with a flag tag in the N-terminal (UniProt Q92570); assay: as above
[5] = molecular target: NR4A3-ΔAF2 (1-610 amino acids) fused with a flag tag in the N-terminal (UniProt Q92570); assay: as above
[6] = molecular target: T2, NR4A3-ΔDBD (1-292 amino acids) fused with a flag tag in the N-terminal (UniProt Q92570); assay: as above
T2 sequence: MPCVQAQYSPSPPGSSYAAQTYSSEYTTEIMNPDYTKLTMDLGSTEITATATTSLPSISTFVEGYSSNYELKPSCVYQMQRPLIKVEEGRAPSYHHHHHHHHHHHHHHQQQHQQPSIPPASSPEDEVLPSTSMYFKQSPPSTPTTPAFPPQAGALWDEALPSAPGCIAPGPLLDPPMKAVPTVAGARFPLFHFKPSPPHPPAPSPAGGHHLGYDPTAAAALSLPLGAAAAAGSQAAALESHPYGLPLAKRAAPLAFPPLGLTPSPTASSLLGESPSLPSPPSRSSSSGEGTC

[7] = molecular target: NR4A3-ΔLBD (1-379 amino acids) fused with a flag tag in the N-terminal (UniProt Q92570); assay: as above

NR4A3, endogenous in HUVEC (from UniProt Q92570 1-626)
binding [1]: binds

SMARCB1 fused with an HA tag in the N-terminal (full-length cDNA) (from UniProt Q12824 1-385)
binding [2]: no binding | binding [3]: binds | binding [4]: binds | binding [5]: binds | binding [6]: no binding | binding [7]: binds
